# In PubChem BioAssay AID463173 (ICCB-Longwood Screening Facility, Harvard Medical School, 2010):
# Hit rate of the full screen: of about 52,000 compounds, about 1,700 (3.3%) were called active. Rule as the data show it: active = survival mostly below about 52% (no sharp cut-off); inactive = mostly above about 56%. This is one part of the list.
# Tested on: Wild type
# Assay: S. aureus survival, RN4220 and DeltatarO strains – OD600, teichoic acid synthesis inhibitors, primary screen (AID 463173)
# Conditions: S. aureus RN4220 wild type/DeltatarO growth, OD600, 18 h, active compounds read low, screened at 18.75 µg/mL (by protocol)
row,SMILES,survival
1,CN(C(=O)CCc1nc(-c2ccccc2F)no1)c1ccc(Cl)cc1,inactive: 68%
2,CCOc1ccc(NC(=O)CCC(=O)Nc2cc(OC)c(NC(=O)c3ccco3)cc2OC)cc1,inactive: 107%
3,O=S(=O)(c1ccc(OC(F)(F)F)cc1)N1CCC(c2nnnn2-c2ccc(F)cc2)CC1,inactive: 88%
4,Cc1ccc(NC(=O)c2nc(S(C)(=O)=O)ncc2N(Cc2ccc(C(C)(C)C)cc2)Cc2ccco2)cc1C,inactive: 88%
5,CCc1cccc(NC(=O)C2CCCN(c3ncnc4onc(-c5ccc(F)cc5)c34)C2)c1 (stereo not given),inactive: 74%
6,COc1cc(C(=O)NCC(c2ccc3c(c2)OCO3)N2CCOCC2)cc(OC)c1OC (stereo not given),inactive: 65%
7,CCCC(O)c1nc2ccccc2n1CCCOc1ccc(Cl)cc1 (stereo not given),inactive: 97%
8,CCOc1ccc(-c2cc3c(=O)n(CC(=O)NCc4ccc(C)cc4)ccn3n2)cc1,inactive: 78%
9,O=C(N/C(=C\c1ccc(O)cc1)C(=O)N1CCCCC1)c1ccccc1,inactive: 96%
10,CCc1nn(C)c(N)c1C,inactive: 99%
11,CCn1cc(C(=O)OCC(=O)Nc2ccc(C)c(Cl)c2)c(=O)c2ccc(C)nc21,inactive: 70%
12,CCN1CCSc2ccc(C(=O)NCc3ccc(OC(C)C)cc3)cc21,inactive: 85%
13,COc1ccc(-c2noc(CSCC(=O)Nc3cc(OC)c(OC)c(OC)c3)n2)cc1OC,inactive: 72%
14,CCOC(=O)Cc1ccc(NC(=O)NCc2c(-n3cccc3)sc3c2CCCC3)cc1,inactive: 85%
15,COc1ccc(N(Cc2cc3ccccc3[nH]c2=O)C(=O)c2cccc(Cl)c2)cc1,inactive: 86%
16,Cc1ccc(NC(=O)c2c(C)cc(C)nc2SCC(=O)Nc2ccc(Br)cc2)cc1,inactive: 76%
17,Cc1ccc(C(=O)N/C(=C/c2ccccc2)C(=O)NCc2ccco2)cc1,inactive: 106%
18,CN1CCCC(OC(=O)c2ccc(F)cc2)C1 (stereo not given),inactive: 99%
19,CC(=O)N1c2ccccc2CC1C(=O)N1CCN(c2ccccc2)CC1 (stereo not given),inactive: 75%
20,CCc1nc2ccc(C(=O)NCCc3ccccc3OC)cc2nc1CC,inactive: 72%
21,O=C(CS(=O)(=O)c1cccc2nsnc12)Nc1ccccc1Cl,inactive: 74%
22,OCCn1nnnc1-c1ccccc1,inactive: 108%
23,CCCCN1CC(c2nc3ccccc3n2CCCCOc2cc(C)ccc2C)CC1=O (stereo not given),active: -6%

row,SMILES,survival
1,Cc1cccc(OCC(=O)Nc2cccc(OCc3cc(=O)n4cccc(C)c4n3)c2)c1,inactive: 120%
2,O=C(/C=C/c1ccccc1)Nc1cc(-c2nc3cc(Cl)ccc3o2)ccc1Cl,inactive: 70%
3,Cc1cc2nc(-c3cccc(NC(=O)c4cccc5ccccc45)c3)oc2cc1C,inactive: 82%
4,CCOc1ccc(N2CC(NC(=O)c3ccco3)CC2=O)cc1 (stereo not given),inactive: 75%
5,CN1CCC(N(Cc2ccc3c(c2)OCO3)C(=O)c2cn(Cc3ccccc3)c3ccsc23)CC1,inactive: 104%
6,CC1CCCN(C(=O)c2cc3ccc4cccnc4c3[nH]2)C1 (stereo not given),inactive: 83%
7,COc1cccc(-n2ccnc2SCC(=O)Nc2c(C)cc(C)cc2C)c1,inactive: 113%
8,Cc1cc(C)c(NC(=O)Cn2c(=O)c3cccn3c3ccccc32)c(C)c1,inactive: 76%
9,CCCCNC(=O)c1ccc2c(c1)N(Cc1ccc(F)cc1)C(=O)c1ccccc1S2=O (stereo not given),inactive: 93%
10,CCSc1ncc(Cl)c(C(=O)N2CCN(c3ccccc3OC)CC2)n1,inactive: 89%
11,CCOCCCNC(=O)c1ccc(-n2c(-c3ccccc3)cc3c2CCCC3)cc1,inactive: 86%
12,Cc1ccc(NC(=O)/C=C\C(=O)N(c2ccc(C(C)C)cc2)C(C(=O)NCc2ccco2)c2ccc(Cl)cc2)cc1 (stereo not given),inactive: 67%
13,Cc1cccc(C(=O)OCc2cc(=O)n3ccsc3n2)c1,inactive: 71%
14,COc1ccc(CNC(=O)C2CCN(S(=O)(=O)c3c(C)noc3/C=C/c3ccccc3F)CC2)cc1,inactive: 94%
15,CC(C)(C)c1cc(C(F)(F)F)nc(SCCNC(=O)c2cnn3cccnc23)n1,inactive: 107%
16,COc1ccc(Cn2ccc3nc(C)c(C(=O)Nc4ccc(OC)cc4)cc3c2=O)cc1,inactive: 85%
17,Cc1ccc(-n2c(C)cc(C(=O)C(=O)Nc3ccccc3)c2C)c(C)c1,inactive: 85%
18,COc1ccc(CCNC(=O)CCn2c(=O)c3ccccc3n(Cc3ccccc3F)c2=O)cc1OC,inactive: 95%
19,CC(=O)Nc1nc2n(n1)C(c1ccc(F)cc1)C=C(c1ccc(Cl)cc1)N2 (stereo not given),inactive: 90%
20,CC(C(=O)NCCSCc1cccc(Cl)c1)N(c1ccccc1)S(C)(=O)=O (stereo not given),inactive: 90%
21,CC(=O)c1cccc(NC(=O)C2CCN(S(=O)(=O)c3ccc4c(c3)CCCN4C(C)=O)CC2)c1,inactive: 75%
22,Cc1ccc(-c2nc(C)c(CCNC(=O)c3cccs3)s2)cc1,inactive: 119%
23,Cc1c(C(=O)OCc2ccccc2)[nH]c2c1C(=O)CC(c1ccc(C(C)(C)C)cc1)C2 (stereo not given),inactive: 93%

row,SMILES,survival
1,CC1CCN(c2nn3c(=O)c(C(=O)NCCCOC(C)C)cnc3s2)CC1,inactive: 146%
2,Cc1ccc(CN2CCCn3nc(C(=O)NCCc4ccccc4C)cc3C2=O)cc1,inactive: 79%
3,CC(C)c1ccc(NC(=O)C2CCN(C(=O)c3ccc(F)cc3)CC2)cc1,inactive: 65%
4,COc1cc(C(=O)Nc2ccccc2-c2nc(-c3ccccc3)no2)cc(OC)c1OC,inactive: 88%
5,CCc1cccc(NC(=O)c2cc3c(=O)n(Cc4ccccc4)ccc3nc2C)c1,inactive: 74%
6,CCN(CC)c1nc2ccccc2nc1C(=O)Nc1ccc(C(C)=O)cc1,inactive: 85%
7,Cc1ccc(C)c(NC(=O)CN(C)S(=O)(=O)c2cccc3nsnc23)c1,inactive: 83%
8,CC(C)NC(=O)C1CC(c2ccccc2O)=NO1 (stereo not given),inactive: 101%
9,Cc1cccc(N(C)c2nc3ccc(C(=O)c4ccccc4)cc3n3c(C)nnc23)c1,inactive: 82%
10,Cc1ccc(-n2nc(C(=O)Nc3ccc(F)cc3F)c3c4ccccc4n(C)c3c2=O)cc1,inactive: 75%
11,c1ccc(C2=NNC(c3nc4ccccc4[nH]3)C2)cc1 (stereo not given),inactive: 108%
12,Cc1ccc(C)c(NC(=O)Cn2c(=O)n(CCC(C)C)c(=O)c3cccnc32)c1,inactive: 86%
13,CC(C)(C)C1CCc2c(sc(NC(=O)c3cc4ccccc4c(=O)o3)c2C(N)=O)C1 (stereo not given),inactive: 74%
14,NC(=O)CSc1nnc2c(n1)[nH]c1ccc(Cl)cc12,inactive: 106%
15,O=C(NCCN1CCCCC1)Nc1c[nH]c2c(Cl)cccc2c1=O,inactive: 112%
16,COc1ccccc1NC(=O)Cn1cc(S(=O)(=O)Cc2ccccc2)c2ccccc21,inactive: 88%
17,CCCCCOc1ccc(/C=C/C(=O)Nc2sc(C)c(C)c2C(=O)OCC)cc1OC,inactive: 132%
18,Cc1ccc(-c2csc(-c3nc(-c4ccc(Br)s4)cs3)n2)cc1,inactive: 69%
19,CCN(CC)CCNC(=O)Cn1ncc2c3ccccc3n(Cc3ccc(Cl)cc3)c2c1=O,inactive: 130%
20,Cc1ccc(NC(=O)CSc2nc(=O)n(Cc3cccnc3)c3c2CCC3)cc1F,inactive: 74%
21,COc1ccc(NC(=O)Cn2nnc(C(=O)NCc3cccs3)c2N)cc1,inactive: 81%
22,COc1ccc(OCC(=O)Nc2ccc3oc(-c4ccncc4)nc3c2)cc1,inactive: 99%
23,CCc1cccc(C)c1NC(=O)c1cc(S(=O)(=O)N(Cc2ccc(C(=O)OC)cc2)Cc2ccc(OC)c(OC)c2)ccc1F,inactive: 88%

row,SMILES,survival
1,Cc1ccccc1Oc1nc2ccccn2c(=O)c1/C=C(\C#N)c1nc2ccccc2[nH]1,inactive: 72%
2,COc1ccc(Cc2nc3ccc(C(=O)NCc4ccccc4C)cc3o2)cc1,inactive: 80%
3,COc1ccc(NC(=O)CN2C(=O)CC(c3ccc(C)c(C)c3)=Nc3ccccc32)cc1OC,inactive: 76%
4,CCC(CC)C(=O)Nc1ccc2nc(SCC(=O)N3CCCC3)sc2c1,inactive: 110%
5,CN(C)c1ccc(/C=C/c2nc(-c3ccccc3O)n(-c3ccccc3)n2)cc1,inactive: 46%
6,O=C(Nc1cccc(NC(=O)C2CCCO2)c1)c1ccco1 (stereo not given),inactive: 102%
7,COc1cccc(C(=O)N(Cc2cccnc2)Cc2cc3cc(C)cc(C)c3[nH]c2=O)c1,inactive: 105%
8,Cc1ccc2nc(-c3cccs3)c(Nc3c(C)cccc3C)n2c1,inactive: 36%
9,COc1cccc(-c2cc(C#N)on2)c1OC,inactive: 89%
10,NC(=S)C(=S)N1CCOCC1,inactive: 116%
11,CC(C)CCNC(=O)CN1C(=O)CSc2ccc(S(=O)(=O)N3CCC(C)CC3)cc21,inactive: 59%
12,COc1ccc(NC(=O)[C@H]2O[C@@H]3OC(C)(C)O[C@@H]3[C@H]3OC(C)(C)O[C@H]32)c(OC)c1,inactive: 104%
13,Cc1c(C)n(CC(O)CNCc2ccco2)c2ccccc12 (stereo not given),inactive: 104%
14,CCOC(=O)C1CCCN(c2nc3c(S(=O)(=O)c4ccc(CC)cc4)nnn3c3ccsc23)C1 (stereo not given),inactive: 80%
15,CCCCc1noc(-c2ccc(OC(=O)c3ccccc3)cc2)n1,inactive: 94%
16,Cc1ccc2c(c1)c1c(c(=O)n(-c3cccc(Cl)c3)c(=O)n1CC(=O)NCC1CCCO1)n2C (stereo not given),inactive: 71%
17,Cc1c(C(=O)NCc2ccc(F)cc2)oc2ccc(S(=O)(=O)N3CCCCC3)cc12,inactive: 84%
18,Cn1c(=O)[nH]c(=O)c2c1nc(N1CCOCC1)n2Cc1ccccc1,inactive: 144%
19,CCc1cccc(NC(=O)CCc2nc3cccnc3n2Cc2ccc(OC)cc2)c1,inactive: 86%
20,CCOC(=O)Cc1ccc(NC(=O)Nc2c[nH]c(=O)[nH]c2=O)cc1,inactive: 96%
21,Oc1c(C(c2ccc(F)cc2)N2CCOCC2)sc2nc(-c3ccco3)nn12 (stereo not given),inactive: 45%
